“Also recorded” adds a separate entry of the source.
How the values were obtained:
[1] = AC-SINS self-interaction (aggregation behavior); format: physicochemical; settings: cutoff: shift of >5 nm in plasmon wavelength
Procedure, shortened: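 Antibodies captured on gold nanoparticles coated with anti-human polyclonal antibodies; self-association read as red shift of plasmon wavelength from 530 nm (unaggregated). Shift >5 nm taken as cutoff for self-interaction.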

[2] = semaglutide plus Ab109 in DIO mice incl. semaglutide withdrawal (Example 6); format: in vivo, mouse
Procedure: Male C57/BL6 male mice (n=8/group) were either fed regular mouse chow (Group 1) or placed on a 60% high fat diet at six weeks of age and maintained on the 60% high fat diet until 21 weeks of age (Groups 2-8), at which time the study began (day 0). On day 0, animals in groups 2-8 were switched to a 45% high fat diet and maintained on the 45% high fat diet until the animals were terminated. […] Body weight was measured three times per week and qNMR measurements of lean mass and fat mass were obtained on the days set forth.
Animals in groups 3 and 4 were dosed with semaglutide weekly for 14 days, then terminated. Animals in groups 5 and 6 (weight regain groups), were treated with semaglutide for 35 days, then the semaglutide treatment was ended while the myostatin activation inhibiting antibody treatment continued until the animals were terminated on day 63. The animals in Groups 7 and 8 were treated with semaglutide for 63 days, i.e., they remained on semaglutide until the study terminated on day 63.
At termination, left and right gastrocnemius muscles were removed and frozen; the liver was weighed, one lobe was fixed, and the remainder was frozen; epididymal adipose tissue was removed and weighed; subcutaneous adipose tissue was removed and weighed; and a terminal serum bleed was obtained.

[3] = pharmacokinetics of Ab109 in Cynomolgus macaques (Example 10); format: in vivo
Procedure: A preliminary analysis of the pharmacokinetics of subcutaneous or intravenous dosing of Ab109 was determined in non-human primates following a single dose of Ab109 in five groups, each comprising three Cynomolgus macaques. Groups 1-4 were dosed subcutaneously with 0.3, 3, 10 or 30 mg/kg antibody, respectively. […] Samples were taken at day −1 (pre-dose), 1-hour and 8-hour post-dose, and at days 1, 3, 4, 5, 7, 10, 14, 17, 21, 28, 35, 42, 56 and 63 post-dose. An interim pharmacokinetic analysis was performed on samples up to 28 days post-dose.

[4] = serum antibody exposure (PK) in obese mice with or without semaglutide (Example 8); format: in vivo, mouse; settings: 0.1 to 3 mg/kg i.p. days 0, 7, 14, alone or with semaglutide; FIG. 16A
Procedure: Male 19 week old C7/BL6 mice fed a high fat diet to induce obesity (DIO-B6-M mice, were evaluated for the effect of the combination of antibody and semaglutide on the exposure of the antibody to the target antigen (PK) and the total myostatin serum level (PD), as shown in Table 25. Animals were dosed with antibody intraperitoneally on days 0, 7, and 14 and were dosed with semaglutide subcutaneously daily throughout the study. Exposure of the antibody to immobilized promyostatin was determined by ELISA. Total serum myostatin was also measured by ELISA. The study concluded on day 22, when terminal bleeds were obtained.

free latent myostatin = molecular target: T1, free latent myostatin (Mus musculus, UniProt O08689); experiment: serum free latent myostatin assay in mice; format: in vivo; settings: 2 mg/kg and 20 mg/kg doses; FIG. 17
T1 construct: from tissue; host or cells: mouse serum
Excerpt: Serum clearance: As used herein, the term “serum clearance” or “clearance” refers to a relative pharmacokinetic/pharmacodynamic behavior pertaining to changes in serum concentrations (e.g., circulating levels) of an analyte (e.g., target protein or protein complex) over time. When the analyte being measured accumulates in the serum, it is said to have slow clearance. By contrast, when the analyte being measured is removed (“cleared”) rapidly from the serum, it is said to have fast clearance. Serum clearance in vivo may occur via multiple mechanisms, including, for example, targeted degradation, Fc-mediated internalization, etc. For example, serum clearance of circulating myostatin may be measured with an assay for determining binding of an antibody to free myostatin in serum (circulating myostatin that is not bound by the antibody). Such an assay may involve immobilizing a biotinylated capture antibody known to bind pro and latent myostatin, before adding a sample comprising myostatin to test the ability of the antibody to bind to the free myostatin and adding a detection antibody with a detectable marker.
In another embodiment, a pharmacodynamic assay, can be performed by measuring the binding of the antibodies to serum free latent myostatin (i.e., circulating latent myostatin that is not bound by the antibody). […]

B1: Ab109: anti-pro/latent myostatin antibody; CDR sequences in Table 2d (antibody)
heavy: EVQLVESGGGLVQPGGSLRLSCAASGFTFSSYGMSWVRQAPGKGLELVASFTGSGGTYYPDSVKGRFTISRDNAKNSLYLQMNSLRAEDTAVYYCARDLLIRFLEWSHYYGMDVWGQGTTVTVSSASTKGPSVFPLAPCSRSTSESTAALGCLVKDYFPEPVTVSWNSGALTSGVHTFPAVLQSSGLYSLSSVVTVPSSSLGTKTYTCNVDHKPSNTKVDKRV[human IgG4 Fc with S228P (EU numbers) left out]
light: DIVMTQSPLSLPVTPGEPASISCRSSQSLLHSSGHNFLHWYLQKPGQSPQLLIYEVSNRVSGVPDRFSGSGSGTDFTLKISRVEAEDVGVYYCMQQTQYPPTFGGGTKVEIKRTVAAPSVFIFPPSDEQLKSGTASVVCLLNNFYPREAKVQWKVDNALQSGNSQESVTEQDSKDSTYSLSSTLTLSKADYEKHKVYACEVTHQGLSSPVTKSFNRGEC
With B1 the “aggregation behavior by AC-SINS” value [1] was “did not display aggregation behavior”, the body weight ([2]; 45% high fat diet, semaglutide 0.04 mg/kg with hIgG or Ab109, incl. regain after withdrawal, FIG. 14A) was “regained weight at the same rate whether they were treated with hIgG or Ab109” and the “lean mass and fat mass by qNMR” value ([2]; Ab109 and semaglutide, FIG. 14H) was “reversed lean mass loss and enhanced fat mass loss induced by semaglutide treatment”. For the same molecule, the “further reduction of fasting blood glucose” value ([2]; Ab109 in conjunction with semaglutide, FIG. 14I) was “approximately 20%”, the liver weight ([2]; Ab109 in conjunction with semaglutide, FIG. 14J) was “reduced liver weight” and the gastrocnemius muscle weight ([2]; after 14 days of semaglutide treatment, FIG. 14E) was “preserved the gastrocnemius muscle weight”. The lean mass ([2]; semaglutide and Ab109, FIG. 14B-C) was “continued to increase their lean mass throughout the duration of the study; also recorded: better at maintaining lean mass during weight loss”, the fat mass ([2]; semaglutide, and regain after withdrawal with Ab109 or control IgG, FIG. 14D) was “regained less fat mass and regained it at a slower rate than those treated with control IgG” and the “concentration of antibody in the serum” value ([3]; single dose 0.3, 3, 10 or 30 mg/kg s.c. or 10 mg/kg i.v., up to 28 days, FIG. 24) was “dose proportional”. The apparent bioavailability ([3]; subcutaneous vs intravenous 10 mg/kg, AUC up to day 28 post-dose, interim analysis) was “greater than 85%”, the “serum exposure of antibody (PK)” value [4] was “dose proportional between 0.1 and 1 mg/kg and slightly exceeded dose proportionality at the highest dose of 3 mg/kg” and the “free latent myostatin levels in the serum” value (free latent myostatin) was “reduce free latent myostatin levels in the serum”.

From US20260209325A1, “SELECTIVE AND POTENT INHIBITORY ANTIBODIES OF MYOSTATIN ACTIVATION” (SCHOLAR ROCK, INC., priority 2022, published 2026)
